Assay results published in PubChem BioAssay AID1030 (National Center for Advancing Translational Sciences (NCATS), 2008).
In all, about 220,000 compounds went through this assay and about 16,000 (7.3%) were called active. Inconclusive results, whose numbers are uncertain, are shown with a selection of clear calls. Calls come from the whole dose curve; as a rule, active = well fitted inhibition curve with a large enough effect (not every such curve was filed as active); inconclusive = small, poorly fitted or top-dose-only effect, or another doubt; inactive = no such curve, though single readings can be large or run the other way. No potency is given beside an inconclusive call; the fits are too rough.

target: Aldehyde dehydrogenase 1A1 (Homo sapiens) (UniProt P00352); assay: qHTS Assay for Inhibitors of Aldehyde Dehydrogenase 1 (ALDH1A1); settings: Purified ALDH1A1, NADH fluorescence, propionaldehyde substrate; series mostly up to 75.3 µM; activity, negative = inhibition: at the top concentration;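 for activity, negative = inhibition: plate controls were no enzyme wells and a reference inhibitor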
UniProt P00352, sequence (P00352 whole entry, looked up): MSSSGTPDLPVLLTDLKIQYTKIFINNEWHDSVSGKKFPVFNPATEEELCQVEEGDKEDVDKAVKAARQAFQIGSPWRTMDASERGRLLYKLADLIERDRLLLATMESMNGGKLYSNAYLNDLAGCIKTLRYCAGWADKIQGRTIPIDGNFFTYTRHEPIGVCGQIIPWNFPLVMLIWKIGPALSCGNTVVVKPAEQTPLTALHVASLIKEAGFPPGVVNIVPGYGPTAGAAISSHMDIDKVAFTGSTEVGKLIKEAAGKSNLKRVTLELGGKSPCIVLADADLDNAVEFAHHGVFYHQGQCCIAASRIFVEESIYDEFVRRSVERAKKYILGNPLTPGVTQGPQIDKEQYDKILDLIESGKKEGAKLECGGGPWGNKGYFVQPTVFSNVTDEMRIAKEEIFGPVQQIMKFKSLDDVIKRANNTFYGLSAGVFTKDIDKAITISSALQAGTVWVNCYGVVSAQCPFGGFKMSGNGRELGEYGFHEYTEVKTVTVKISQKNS
Potency is the fitted concentration of half-maximal effect; tags give direction and shape of the fitted curve.

| SMILES | Potency | activity, negative = inhibition |
| --- | --- | --- |
| COc1ccc2[nH]c(=O)c(CN(CC3CCCO3)S(=O)(=O)c3ccccc3)cc2c1 (stereo unspecified) | inconclusive [inhibitor, single point] | – |
| Cc1cccc(CSc2nc3c(c(-c4cccs4)c2C#N)CN(C)CC3)c1 | inconclusive [inhibitor, single point] | – |
| C/C(=N/NC(=O)Cn1nc2ccccc2n1)c1ccc(F)cc1 | – | inactive: 9.01% |
| O=C(Nc1cccc(N=Cc2cc(Cl)cc(Br)c2O)c1)c1ccco1 | – | inactive: -0.776% |
| CCn1c2ccccc2c2cc(CN3CCN(S(=O)(=O)CC)CC3)ccc21 | inconclusive [inhibitor, single point] | – |
| COc1ccccc1N(C(C)=O)C1SC(=O)N(c2ccccc2)C1=O (stereo unspecified) | inconclusive [inhibitor, partial curve] | – |
| Cc1ccc(S(=O)(=O)NNc2ccccc2)cc1 | active: 5.62 µM | – |
| COc1ccc(NC(=S)NC(NC(=O)CCl)C(Cl)(Cl)Cl)c([N+](=O)[O-])c1 (stereo unspecified) | inconclusive [inhibitor, single point] | – |
| Cc1ccc(-c2cc(C)nc3nc(N)nn23)cc1 | inconclusive [inhibitor, partial curve] | – |
| O=C(N/N=C/c1cccc(OCc2ccccc2)c1)c1ccc(Br)cc1 | – | inactive: 17.5% |
| CN(C)c1ccc(/C=N/N=C/c2ccccc2O)cc1 | active: 12.6 µM | – |
| O=C(NCc1ccco1)c1c[nH]c2ccc(S(=O)(=O)N3CCOCC3)cc2c1=O | inconclusive [inhibitor, partial curve] | – |
| O=C(CCC1CCCCC1)NCCN1C2=NC[C@H](Cc3ccccc3)N2C[C@H]1Cc1ccc(O)cc1 | inconclusive [inhibitor, single point] | – |
| Cn1c(Cn2c(=O)sc3ccccc32)nnc1SCC(=O)N1CCc2ccccc21 | – | inactive: 3.48% |
| Cc1cc(NC(=O)c2cc3ccccc3o2)cc(C)c1OCC(=O)N1CCOCC1 | – | inactive: -12.7% |
| COc1cccc(C2/C(=C(/O)c3ccc(F)cc3)C(=O)C(=O)N2CCN(C)C)c1 (stereo unspecified) | inconclusive [inhibitor, single point] | – |
| Cc1ccc(S(=O)(=O)c2c(C)cc(-c3ccccc3)[nH]c2=O)cc1 | inconclusive [inhibitor, single point] | – |
| CCOC(=O)c1ccccc1NC(=O)c1ccc2nccnc2c1 | inconclusive [inhibitor, single point] | – |
| COc1ccc(NS(=O)(=O)c2cc(NC(=O)/C=C/c3cccs3)ccc2N2CCOCC2)cc1 | inconclusive [inhibitor, single point] | – |
| CN(C)CCNS(=O)(=O)c1ccc(Cl)cc1 | – | inactive: 1.52% |
| COc1cccc(OC)c1C(=O)NC(=S)NCc1ccccc1 | inconclusive [inhibitor, single point] | – |
| COC(=O)CCC(=O)OC1(C)C(=O)C=C2C=C(C3CC3)N(c3ccccc3)C=C2C1=O (stereo unspecified) | inconclusive [inhibitor, single point] | – |
| CC(C)(C)c1ccc(C(=O)CC(Sc2ccc(Cl)cc2)C(=O)O)cc1 (stereo unspecified) | active: 2.51 µM | – |

| SMILES | Potency | activity, negative = inhibition |
| --- | --- | --- |
| Cn1/c(=N/NC(=O)c2ccccc2F)sc2ccccc21 | – | inactive: 0.0039% |
| Cc1ccc(S(=O)(=O)N2CCOCC2)cc1NC(=O)COC(=O)CNC(=O)c1ccc(C(C)(C)C)cc1 | active: 7.94 µM | – |
| COc1cccc(C(=O)N2CCN(S(=O)(=O)Cc3ccccc3)CC2)c1OC | inconclusive [inhibitor, partial curve] | – |
| O=C(NC(Cc1ccccc1)C(=O)O)c1ccc(S(=O)(=O)N2CCOCC2)cc1 (stereo unspecified) | inconclusive [inhibitor, partial curve] | – |
| CCN(CC)c1ccc(S(=O)(=O)Nc2cc(Cl)ccc2Cl)cc1NC(=S)NC(=O)C1CCCC1 | active: 22.4 µM | – |
| Cc1ccccc1NC(=O)CC1SC(=O)N(c2ccccc2)C1=O (stereo unspecified) | active: 15.8 µM | – |
| COc1ccc(CCNC(=O)CCc2ccc(S(=O)(=O)NC(C)C)cc2)cc1 | inconclusive [inhibitor, single point] | – |
| O=C(c1ccc(Cl)c([N+](=O)[O-])c1)N1CCN(Cc2ccc3c(c2)OCO3)CC1 | active: 18.9 µM | – |
| Cc1cccc(-c2nc(CS(=O)CC(=O)NCCCSC3CCCCC3)c(C)o2)c1 (stereo unspecified) | inconclusive [inhibitor, single point] | – |
| Cc1n[nH]c(=S)n(/N=C/c2cccc([N+](=O)[O-])c2)c1=O | inconclusive [inhibitor, single point] | – |
| CC(Oc1ccccc1)c1ccnc2nc(N3CCOCC3)nn12 (stereo unspecified) | inconclusive [inhibitor, single point] | – |
| O=C1/C(=C/c2ccccc2)CCC1C1CCCC1 (stereo unspecified) | – | inactive: -7.95% |
| CCOC(=O)N/N=C\C=C\c1ccco1 | inconclusive [inhibitor, single point] | – |
| CCCCn1nc2cc(C(=O)NCCCCc3ccccc3)ccc2c1OCC | inconclusive [inhibitor, single point] | – |
| O=C(Nc1ccc(S(=O)(=O)N2CCC(C(=O)NC3CCCCC3)CC2)cc1)c1ccco1 | inconclusive [inhibitor, single point] | – |
| CS(=O)(=O)c1ccc2nnn(OCC(=O)Nc3cccc(C#N)c3)c2c1 | active: 10 µM | – |
| CCOC(=O)C1=C(C)NC(=S)NC1c1cccc(O)c1 (stereo unspecified) | active: 1.12 µM | – |
| C=CCSc1nnc2c(n1)OC(c1c(C)[nH]n(-c3ccccc3)c1=O)Nc1ccccc1-2 (stereo unspecified) | – | inactive: -15% |
| CC(C)C(=O)N1CCN(c2ccccc2NC(=O)c2cc([N+](=O)[O-])ccc2N2CCOCC2)CC1 | – | inactive: 6.71% |
| S=C(NCCc1ccccc1)Nc1ccccc1Cl | – | inactive: -5.42% |
| COc1nc(-c2cnccn2)sc1C | – | inactive: -12.2% |
| COc1cccc(OC)c1OCc1cc(C2C3CCCC=C3C(C#N)=C(N)C2(C#N)C#N)c(C)cc1C (stereo unspecified) | inconclusive [inhibitor, single point] | – |
| COc1ccc(C(=O)c2c[nH]c(C(=O)NCC3CCCO3)c2)cc1 (stereo unspecified) | inconclusive [inhibitor, single point] | – |
